Measurements as given in the RNAGym collection of RNA variant scans (doi:10.1073/pnas.2313332121).
This sample is rich in variants without activity.

B1: TPR 5TU (parent)
chain: GGAUCUUCUCGAUCUAACAAAAAAGACAAAUCUGCCACAAAGCUUGAGAGCAUCUUCGGAUGCAGAGGCGGCAGCCUUCGGUGGCGCGAUAGCGCCAACGUUCUCAACUAUGACACGCAAAACGCGUGCUCCGUUGAAUGGAGUUUAUCAUG

Variants of: B1
Test: polymerase ribozyme fitness, log enrichment relative to wild type (log ratio); higher = more active; in vitro selection for triplet polymerase activity
Method in brief: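 Frozen incubation at −7 °C formed the core of a single, triplicate in vitro selection round applied to PCR-built, transcribed mutant libraries of each subunit of a heterodimeric triplet polymerase ribozyme. Extended constructs were gel-excised, captured with streptavidin beads and amplified by RT-PCR, and input and output libraries were Illumina-sequenced with a filter of ≥10 input reads and ≥1 read per output. Fitness is the logarithm of genotype enrichment relative to wild-type enrichment, with inverse-variance-weighted replicate averaging, and the logarithm is base 2.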

Row | Variant | polymerase ribozyme fitness (log ratio)
1 | C38U U53A U61A | -1.44
2 | C38U U53A | -1.72
3 | C38U U44C G50C C103A C108A G117U U134G | ≤ -4.2
4 | A39U C85A U109G C114U C132A | ≤ -4.2
5 | C38U G92A A97U U130G C131G A138U A150G U151G | ≤ -4.2
6 | A39U C69U C95U C129G | ≤ -4.2
7 | A39C G46A C85A | ≤ -4.2
8 | A40C A49C C87G A98U G143A U151C | ≤ -4.2
9 | A39C G80U G84A C114G C125A | ≤ -4.2
10 | A39G G50U C123A G128U | ≤ -4.2
11 | C38U U77G A91G C103U A110C A113G C114U | ≤ -4.2
12 | C38U U145A | 0.631
13 | A39G C76G G117A | ≤ -4.2
14 | A39U C69U C75U G84U U127G | ≤ -4.2
15 | A39G C96G C116U A119U A150C | ≤ -4.2
16 | A39C A89G C95U A115C A120U G126U U135G | ≤ -4.2
17 | A39C C57A C85G A110C G136U | ≤ -4.2
18 | A39U A60U G84U G112A A115G A122G G124A | ≤ -4.2
19 | A39C G84A C85G U90G A91G U111A | ≤ -4.2
20 | A39U C93U | -3.36
21 | A39C A40G A49C G80U G86U A106C A150C | ≤ -4.2

Row | Variant | polymerase ribozyme fitness (log ratio)
22 | A39U G46A A66G C69A A89U A122G | ≤ -4.2
23 | A39G A49G G70A C87A G94A C99G G126A | ≤ -4.2
24 | C38U U55G C85A | -2.3
25 | A39U G42U C93U G94C C96U | ≤ -4.2
26 | A39G G88A A142U | ≤ -4.2
27 | C38U U55A A60G C75G C76G A115U A122U C125G | ≤ -4.2
28 | A40C A52C C54U C93U C108G C118U | ≤ -4.2
29 | C38U G50C U56A A66G C69U G86U U90G A91C | ≤ -4.2
30 | A39G C79U G83U G88A A89U A98G | ≤ -4.2
31 | C38U U61A G84A C108A U111G G140A | ≤ -4.2
32 | A39C G62A A73U G83C | ≤ -4.2
33 | A39C A47C U55G C87U A107G | ≤ -4.2
34 | A39G U55A G71A G92C C96U C131U C149A | ≤ -4.2
35 | A39G C72A G124U | ≤ -4.2
36 | A39U G86A C93A U104G | ≤ -4.2
37 | A39C G94U A106G G133A | ≤ -4.2
38 | A39G A89G G92A G141C | -3.85
39 | A39U G59A C69A C79G C96A | ≤ -4.2
40 | A39G C54G C63A G70C C93U G141A | ≤ -4.2
41 | A39U G46C G48A G50C U56A G84U | ≤ -4.2
42 | A39G C87G C108U | ≤ -4.2

Row | Variant | polymerase ribozyme fitness (log ratio)
43 | C38U G86A A137G A147U | -2.49
44 | A39C C79G G92A | -3.32
45 | A40C A49G G50A A73G G94A G143C | ≤ -4.2
46 | A39C C54G C87U G133A A137C G152U | ≤ -4.2
47 | A39U A49G G88C A121G G141C | ≤ -4.2
48 | A39C A49G C51U U55G A119U | ≤ -4.2
49 | C38U U44A U55G C96A A110U G133A | ≤ -4.2
50 | A40C A66C C75A G81A G92C C95G | ≤ -4.2
51 | A39U A60U U146A | -3.58
52 | A39G A115C | -3.17
53 | C38U U55A | -0.159
54 | A39C C96U A142U U144G A147C A150C | ≤ -4.2
55 | C38U U104A C116A G133U | ≤ -4.2
56 | A39C A47C U127A | ≤ -4.2
57 | A39G A66C G74C G80C C105G G133C | ≤ -4.2
58 | A39U C54U G74A G86U A98G U111C C129U U139A | ≤ -4.2
59 | C38U U55A G58C C87A G128A A147C | ≤ -4.2
60 | A39C G86A C118G | ≤ -4.2
61 | C38U U77A G80A | ≤ -4.2
62 | A39C A52U U55A | ≤ -4.2
63 | A39G G42C A47C A91U C93U U101G A119U C125U G133U G136A | ≤ -4.2

Row | Variant | polymerase ribozyme fitness (log ratio)
64 | A39U C51G U90A C105G C114U U127G G133C | ≤ -4.2
65 | A39C A40C U53A C63G C95U C103U G128C | ≤ -4.2
66 | A39G G94C A110G C125G A150G | ≤ -4.2
67 | C38U G42A G48C G67A U145G C149A | ≤ -4.2
68 | A39C G65C G83C G143A A150U | ≤ -4.2
69 | A39U G62A | -2.58
70 | A39G C96U C125A | -2.58
71 | C38U U77C G141U | ≤ -4.2
72 | A39G A60U G92A C118G A120G U148G | ≤ -4.2
73 | A39G C75U A98G C132U C149A | ≤ -4.2
74 | A40C A41U G42A C75G G94C | ≤ -4.2
75 | A39G G68A G81C G86C A106U | ≤ -4.2
76 | A39U A40C C79A U82C C96A U109G A119U G143A | ≤ -4.2
77 | A39G U61A G68A C93U | ≤ -4.2
78 | A39C C51G C76U C85A | ≤ -4.2
79 | C38U G80C | ≤ -4.2
80 | A39G U78G G86U C123G U139C | ≤ -4.2
81 | A39G A52C C87A U102G C132U | ≤ -4.2
82 | A39U G48C G67A C85G G86U G88A G92A C118G | ≤ -4.2
83 | A39U G68A C87U G92U | ≤ -4.2
84 | C38U G48C G92A A142C G143U | ≤ -4.2
